Measured values published in PubChem BioAssay AID588855 (National Center for Advancing Translational Sciences (NCATS), 2011).
The campaign covered roughly 410,000 compounds. About 5,000 (1.2%) were called active. The inconclusive results got no clear call from the source; some entries with a clear call stand among them for comparison. Calls come from the whole dose curve; as a rule, active = well fitted inhibition curve with a large enough effect; inconclusive = small, poorly fitted or top-dose-only effect; inactive = no such curve, though single readings can be large or run the other way. A potency beside an inconclusive call is a rough fit, not a confirmed value.
Potency is the fitted concentration of half-maximal effect; tags give direction and shape of the fitted curve.

Test: qHTS for Inhibitors of TGF-b; note: nearly all actives have a fitted effect of over 65% in size
Details: HepG2 CAGA-GFP TGF-b/SMAD3 reporter, GFP fluorescence, 18 h, TGF-beta stimulated, 500 pg/mL final; series mostly up to 46.1 µM
Summary of the method: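 Smad-responsive CAGA-GFP expression was quantified in HEPG2 cells exposed to compounds and 500 pg/mL final TGF-beta for 18 h at 37 degrees C; unstimulated wells defined full inhibition.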
With `O=C(Nc1nc2c(s1)CCCC2)c1cccc(S(=O)(=O)N2CCCc3ccccc32)c1` the Potency was inconclusive: 0.355 µM [inhibitor, full curve]. In the case of `O=C(CSCc1ccccc1)N/N=C/c1cc2c(cc1Br)OCO2`, the Potency is reported as inconclusive: 35.5 µM [inhibitor, single point]. In the case of `COc1ccc(S(=O)(=O)N2CCN(c3nc(-c4cccs4)nc4ccccc34)CC2)cc1OC`, the Potency is reported as “inactive”. In the case of `CC(C)CNC(=O)CSc1n[nH]c(=O)n1CCc1ccccc1`, the Potency is reported as “inactive”. In the case of `CC(C)CC1NC(=O)c2cc3ccccc3cc2-n2c1nc1cc(Cl)ccc1c2=O` (stereo unspecified), the Potency is reported as “inactive”. For `COc1cccc2c(=O)c3ccccc3oc12`, the Potency was inconclusive: 35.5 µM [inhibitor, single point]. In the case of `CCCCNc1nc2ccccc2c2nc(-c3ccccc3)nn12`, the Potency is reported as inconclusive: 35.5 µM [inhibitor, single point]. In the case of `C#CCn1c(S(=O)(=O)Cc2ccc(OC)cc2)nc(-c2ccccc2)c1-c1ccccc1`, the Potency is reported as inconclusive: 0.562 µM [inhibitor, full curve]. In the case of `COC(=O)c1sc(-c2ccc(C(C)(C)C)cc2)cc1NC(=O)/C=C/C(=O)O`, the Potency is reported as active: 8.91 µM. With `O=C(C[n+]1ccc(-c2nnc3n2CCC3)cc1)c1ccc(Cl)c(Cl)c1` the Potency was inconclusive: 3.98 µM [inhibitor, single point]. For `O=C(CC1(O)C(=O)N(Cc2ccccc2Cl)c2ccccc21)c1ccco1` (stereo unspecified), the Potency was “inactive”. In the case of `CCc1cc(C(c2ccccc2OC)N2CCOCC2)c(NC(=O)c2ccccc2)s1` (stereo unspecified), the Potency is reported as inconclusive: 35.5 µM [inhibitor, single point]. In the case of `COc1ccccc1NS(=O)(=O)c1cccc(C(=O)N/N=C/c2ccc(NC(C)=O)cc2)c1`, the Potency is reported as “inactive”. For `CCn1c(C)c(C(=O)c2ccccc2)c(C#N)c1C(=O)O`, the Potency was inconclusive: 15.8 µM [inhibitor, single point]. With `COc1ccc(CNC(=O)CS(=O)Cc2nc(-c3cccc(C)c3)oc2C)cc1` (stereo unspecified) the Potency was inconclusive: 28.2 µM [inhibitor, single point]. For `Clc1cc2cccnc2c2ncccc12`, the Potency was inconclusive: 2.82 µM [inhibitor, full curve]. With `CC1(C)Cc2c(sc3nc(SCC(=O)O)nc(N)c23)CO1` the Potency was “inactive”. For `CCOc1ccc(CCN2CN(CC)CNC2=S)cc1OCC`, the Potency was “inactive”. For `COc1ccc(S(=O)(=O)NC2CCc3ccccc32)cc1OC` (stereo unspecified), the Potency was “inactive”. With `Cc1ccc(NC(=O)Cn2nc(Cc3ccncc3)c3ccccc3c2=O)c(Cl)c1` the Potency was inconclusive: 35.5 µM [inhibitor, single point]. For `OCC[C@@H]1C[C@H](O)[C@@H](O)[C@]2(OCCc3ccccc32)O1`, the Potency was inconclusive: 12.6 µM [inhibitor, single point]. For `COc1cc(C(C(=O)NC2CCCCC2)N(Cc2cccs2)C(=O)Cc2c[nH]c3ccccc23)cc(OC)c1OC` (stereo unspecified), the Potency was inconclusive: 11.2 µM [inhibitor, partial curve, poor fit]. With `S=C(c1cn(CCOc2ccccc2)c2ccccc12)N1CCCC1` the Potency was inconclusive: 14.1 µM [inhibitor, single point]. In the case of `CC(C)(Oc1ccc(Br)cc1)C(=O)Nc1cc(-c2nc3ccccc3[nH]2)ccc1Cl`, the Potency is reported as inconclusive: 15.8 µM [inhibitor, single point]. For `CCc1ccc(Nc2nc3ccccc3c(=O)s2)cc1`, the Potency was “inactive”. With `Cc1c(CNCCc2ccc(Cl)cc2)c(C(=O)O)c(C)n1-c1ccccc1` the Potency was “inactive”. In the case of `O=C(NNc1ccccc1[N+](=O)[O-])Nc1cccc(Cl)c1`, the Potency is reported as inconclusive: 35.5 µM [inhibitor, single point]. With `Cc1ncc(C(O)c2ccc(N(C)C)cc2)n1Cc1ccccc1` (stereo unspecified) the Potency was “inactive”. With `COc1cccc(NC(=O)CN(C)C(=O)c2c(C)nn(Cc3ccc(C)cc3)c2Cl)c1` the Potency was inconclusive: 4.47 µM [inhibitor, single point]. In the case of `Cc1[nH]c2ccccc2c1C1=NNC(=Nc2ccc(F)cc2)SC1`, the Potency is reported as inconclusive: 20 µM [inhibitor, partial curve, poor fit]. With `NC(=O)CC(NC(=O)c1ccc(Br)cc1)c1ccc(N2CCC(Cc3ccccc3)CC2)c([N+](=O)[O-])c1` (stereo unspecified) the Potency was active: 10 µM. In the case of `O=[N+]([O-])c1ccccc1-c1cc(-c2ccccc2O)n[nH]1`, the Potency is reported as inconclusive: 10 µM [inhibitor, partial curve, poor fit]. For `CCOc1ccccc1CNC(=O)CCCn1ccc2cc(S(=O)(=O)N3CCCC3)ccc21`, the Potency was inconclusive: 22.4 µM [inhibitor, single point]. In the case of `O=C(Cn1ccc(C(F)(F)F)n1)N=Nc1c(O)[nH]c2ccc(Br)cc12`, the Potency is reported as inconclusive: 35.5 µM [inhibitor, partial curve, poor fit]. For `CC[C@]12c3[nH]c4ccc(OC)cc4c3CCN1C(=O)C(CC(=O)NC/C=C(\C)CCC=C(C)C)C[C@@H]2C(=O)N1CCN(C(=O)c2ccco2)CC1` (stereo partly specified), the Potency was inconclusive: 15.8 µM [inhibitor, single point]. In the case of `Cc1ccc(C(c2nnnn2C2CCCCC2)N2CCc3ccccc32)cc1` (stereo unspecified), the Potency is reported as “inactive”. With `CCOc1ccc(CCNC(=O)c2nn(C)c3c2CSc2ccccc2-3)cc1` the Potency was inconclusive: 10 µM [inhibitor, single point]. With `c1ccc(CCn2nnnc2C(c2cccnc2)N2CCN(c3ccccc3)CC2)cc1` (stereo unspecified) the Potency was “inactive”. For `O=C1CN(C(=O)COc2ccc(Cl)cc2Cl)C(c2ccccc2)c2cc(F)ccc2N1` (stereo unspecified), the Potency was inconclusive: 35.5 µM [inhibitor, single point]. In the case of `COc1ccc(CCNc2c(N)n(Cc3ccccc3)c(=O)[nH]c2=O)cc1OC`, the Potency is reported as inconclusive: 35.5 µM [inhibitor, single point]. With `CSc1ccc(-c2nc3cccc(C)n3c2Nc2ccc(Cl)cc2)cc1` the Potency was “inactive”. In the case of `COC(=O)N1C(=O)[C@](c2ccsc2)(C(C)C)N1C(=O)OC`, the Potency is reported as inconclusive: 15.8 µM [inhibitor, single point]. With `OCCC1CN(Cc2nc3ccccc3[nH]2)CCN1C1CCCC1` (stereo unspecified) the Potency was “inactive”. With `CCN(C(=S)NC(=O)C1CCCC1)C1CCCCC1` the Potency was “inactive”. In the case of `COc1ccc(-c2cc(C)no2)cc1S(=O)(=O)NCCCN(C)Cc1ccccc1`, the Potency is reported as inconclusive: 15.8 µM [inhibitor, single point]. With `COc1ccc(NC(=O)CS(=O)CC(=O)NC2CCCc3ccccc32)cc1` (stereo unspecified) the Potency was inconclusive: 35.5 µM [inhibitor, single point]. In the case of `COc1c(C)cc(C(O)c2ncc(-c3cccc4ccccc34)[nH]2)cc1C` (stereo unspecified), the Potency is reported as inconclusive: 22.4 µM [inhibitor, partial curve, poor fit]. With `Cc1nnc(NC(=O)c2ccccc2Oc2ccccc2)s1` the Potency was inconclusive: 0.1 µM [inhibitor, full curve, poor fit]. With `O=C(c1cccs1)N(Cc1nc2sc3c(c2c(=O)[nH]1)CCCC3)C1CCCC1` the Potency was inconclusive: 17.8 µM [inhibitor, partial curve]. For `CC(C)(C)C1CCc2nc(NC(=O)Cc3ccccc3)sc2C1` (stereo unspecified), the Potency was inconclusive: 35.5 µM [inhibitor, single point]. For `FC(F)(F)c1ccccc1Cc1c(-c2ccco2)nc2ccc(Cl)cn12`, the Potency was inconclusive: 28.2 µM [inhibitor, single point]. With `Cc1nc2c(OCc3ccc(Cl)cc3Cl)cccn2c1N(C)Cc1cccs1` the Potency was inconclusive: 25.1 µM [inhibitor, single point]. For `COc1cccc(CN2CC(C(=O)N3CCN(C(C)C)CC3)CCC2=O)c1` (stereo unspecified), the Potency was inconclusive: 22.4 µM [inhibitor, single point]. With `COC(=O)C1CCN(c2cc(=O)n(-c3ccccc3Cl)c(=O)[nH]2)CC1` the Potency was inconclusive: 35.5 µM [inhibitor, single point]. With `CC(c1ccon1)N(C)Cc1c(C(=O)N(C)Cc2ccccc2)nc2ccccn12` (stereo unspecified) the Potency was inconclusive: 3.55 µM [inhibitor, single point]. With `COc1ccc([C@@H]2[C@@H]3C(=O)N(C(C)(C)C)C(=O)[C@@H]3[C@]3(C)C(=O)N(c4cccc(F)c4)C(=O)N23)cc1` the Potency was inconclusive: 6.31 µM [inhibitor, single point]. In the case of `O=C1C2C(c3cccc(/C=C/c4ccccc4)c3)CC=CC2C(c2ccc3ccccc3c2)N1Cc1ccccc1` (stereo unspecified), the Potency is reported as inconclusive: 5.62 µM [inhibitor, full curve, poor fit]. For `CCCCCCCCCCCC(=O)NC(Cc1ccc(OC)c([N+](=O)[O-])c1)C(=O)O` (stereo unspecified), the Potency was inconclusive: 11.2 µM [inhibitor, partial curve]. In the case of `CCCCn1c(N)c(N(CCOC)C(=O)C2CCN(C(=O)c3ccccc3C)CC2)c(=O)[nH]c1=O`, the Potency is reported as “inactive”. With `O=C(NCN1CCc2ccccc2C1)c1cnccn1` the Potency was inconclusive: 2.24 µM [inhibitor, partial curve, poor fit]. For `CC(C)Cn1c(N)c(C(=O)COC(=O)c2cc(C3CC3)nc3ccccc23)c(=O)n(C)c1=O`, the Potency was inconclusive: 35.5 µM [inhibitor, single point]. With `CCn1c(=O)cc(OCC(=O)N(C)c2cc(Cl)ccc2C)c2ccccc21` the Potency was inconclusive: 35.5 µM [inhibitor, single point]. With `NC(=O)c1cc2ccccc2o/c1=N/NC(=O)c1cccs1` the Potency was inconclusive: 12.6 µM [inhibitor, partial curve, poor fit]. With `CC(=O)Nc1ccc2c(=O)n(-c3ccccc3)sc2c1` the Potency was inconclusive: 22.4 µM [inhibitor, single point]. For `O=C(c1cc(F)c(F)cc1Cl)N1CCCCC1`, the Potency was inconclusive: 5.62 µM [inhibitor, single point]. For `Cc1ccc(Sc2cnc(N)nc2C)cc1`, the Potency was “inactive”.
